Data taken from paper PMC12820563, “FoxP3 forms a head-to-head dimer in vivo and stabilizes its multimerization on adjacent microsatellites”.
This is one part of the list.

What follows are sequences tested against T1, MBP-FoxP1dN (Mus musculus, UniProt P58462 326-579) (assay: PD-seq (MBP pull-down with sequencing); 20 mM Tris-HCl pH 7.5, 100 mM NaCl, 1.5 mM MgCl2, 0.4 uM protein, 0.1 uM dsDNA library, 30 min, room temperature, amylose pull-down; high values mean tight binding). Settings: protein: recombinant; tags: His6-MBP; chain copies: 2; dsDNA, one strand shown.
T1 sequence: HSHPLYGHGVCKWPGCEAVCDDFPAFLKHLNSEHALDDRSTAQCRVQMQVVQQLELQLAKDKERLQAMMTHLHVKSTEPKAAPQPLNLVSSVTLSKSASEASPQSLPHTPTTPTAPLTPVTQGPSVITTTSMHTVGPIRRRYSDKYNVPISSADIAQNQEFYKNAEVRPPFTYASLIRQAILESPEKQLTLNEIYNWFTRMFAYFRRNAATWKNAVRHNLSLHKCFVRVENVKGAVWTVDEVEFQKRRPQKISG
Procedure, shortened: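 The N-terminus-lacking fragment of mouse FoxP3 or FoxP1 carried a His6-MBP tag and was expressed in E. coli. At 0.4 µM it was incubated with 0.1 µM Klenow-filled degenerate double-stranded DNA library for 30 min at room temperature in Tris pH 7.5 buffer with NaCl and MgCl2, and complexes were caught on amylose resin, washed three times, released with proteinase K, PCR-barcoded and Illumina-sequenced. Binding is reads-per-million enrichment of pull-down over input with replicates pooled.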

| Sequence | binding signal |
| --- | --- |
| GATGATTGTTCTCCCAGCTGATGAATTTACTAATTCGAGTAAACAAATTTTCCTAATCTTTCTGTTCAAGCGCCATCTAC | 1.52 RPM ratio (pull-down/input) |
| GATGATTGTTCTCCCAGCTGATGAATTCTGTGAGTCGAGTAAACAAATTTTCCTAATCTTTCTGTTCAAGCGCCATCTAC | 0.863 RPM ratio (pull-down/input) |
| GATGATTGTTCTCCCAGCTGATGAATTGTCCCGCTCGAGTAAACAAATTTTCCTAATCTTTCTGTTCAAGCGCCATCTAC | 0.906 RPM ratio (pull-down/input) |
| GATGATTGTTCTCCCAGCTGATGAATTAAACATCTCGAGTAAACAAATTTTCCTAATCTTTCTGTTCAAGCGCCATCTAC | 1.29 RPM ratio (pull-down/input) |
| GATGATTGTTCTCCCAGCTGATGAATTGGCATGATCGAGTAAACAAATTTTCCTAATCTTTCTGTTCAAGCGCCATCTAC | 0.943 RPM ratio (pull-down/input) |
| GATGATTGTTCTCCCAGCTGATGAATTAGAAGCCTCGAGTAAACAAATTTTCCTAATCTTTCTGTTCAAGCGCCATCTAC | 0.893 RPM ratio (pull-down/input) |
| GATGATTGTTCTCCCAGCTGATGAATTCCCACGGTCGAGTAAACAAATTTTCCTAATCTTTCTGTTCAAGCGCCATCTAC | 0.785 RPM ratio (pull-down/input) |
| GATGATTGTTCTCCCAGCTGATGAATTGTCAGGGTCGAGTAAACAAATTTTCCTAATCTTTCTGTTCAAGCGCCATCTAC | 0.837 RPM ratio (pull-down/input) |
| GATGATTGTTCTCCCAGCTGATGAATTTACAACCTCGAGTAAACAAATTTTCCTAATCTTTCTGTTCAAGCGCCATCTAC | 1.21 RPM ratio (pull-down/input) |
| GATGATTGTTCTCCCAGCTGATGAATTTGGAGCGTCGAGTAAACAAATTTTCCTAATCTTTCTGTTCAAGCGCCATCTAC | 0.854 RPM ratio (pull-down/input) |
| GATGATTGTTCTCCCAGCTGATGAATTCGTCAGGTCGAGTAAACAAATTTTCCTAATCTTTCTGTTCAAGCGCCATCTAC | 0.808 RPM ratio (pull-down/input) |
| GATGATTGTTCTCCCAGCTGATGAATTTTGCCGATCGAGTAAACAAATTTTCCTAATCTTTCTGTTCAAGCGCCATCTAC | 0.87 RPM ratio (pull-down/input) |
| GATGATTGTTCTCCCAGCTGATGAATTTGATAGATCGAGTAAACAAATTTTCCTAATCTTTCTGTTCAAGCGCCATCTAC | 0.908 RPM ratio (pull-down/input) |
| GATGATTGTTCTCCCAGCTGATGAATTCGCATTATCGAGTAAACAAATTTTCCTAATCTTTCTGTTCAAGCGCCATCTAC | 1.24 RPM ratio (pull-down/input) |
| GATGATTGTTCTCCCAGCTGATGAATTAAACTCTTCGAGTAAACAAATTTTCCTAATCTTTCTGTTCAAGCGCCATCTAC | 0.825 RPM ratio (pull-down/input) |
| GATGATTGTTCTCCCAGCTGATGAATTCAGCCTATCGAGTAAACAAATTTTCCTAATCTTTCTGTTCAAGCGCCATCTAC | 0.849 RPM ratio (pull-down/input) |
| GATGATTGTTCTCCCAGCTGATGAATTAGTGGTCTCGAGTAAACAAATTTTCCTAATCTTTCTGTTCAAGCGCCATCTAC | 0.927 RPM ratio (pull-down/input) |
| GATGATTGTTCTCCCAGCTGATGAATTCCTAAATTCGAGTAAACAAATTTTCCTAATCTTTCTGTTCAAGCGCCATCTAC | 0.915 RPM ratio (pull-down/input) |

| Sequence | binding signal |
| --- | --- |
| GATGATTGTTCTCCCAGCTGATGAATTGCGGGTTTCGAGTAAACAAATTTTCCTAATCTTTCTGTTCAAGCGCCATCTAC | 1.02 RPM ratio (pull-down/input) |
| GATGATTGTTCTCCCAGCTGATGAATTAGCCGTTTCGAGTAAACAAATTTTCCTAATCTTTCTGTTCAAGCGCCATCTAC | 0.852 RPM ratio (pull-down/input) |
| GATGATTGTTCTCCCAGCTGATGAATTGCATATGTCGAGTAAACAAATTTTCCTAATCTTTCTGTTCAAGCGCCATCTAC | 1.25 RPM ratio (pull-down/input) |
| GATGATTGTTCTCCCAGCTGATGAATTCTCGCGATCGAGTAAACAAATTTTCCTAATCTTTCTGTTCAAGCGCCATCTAC | 0.871 RPM ratio (pull-down/input) |
| GATGATTGTTCTCCCAGCTGATGAATTCTAGCACTCGAGTAAACAAATTTTCCTAATCTTTCTGTTCAAGCGCCATCTAC | 0.855 RPM ratio (pull-down/input) |
| GATGATTGTTCTCCCAGCTGATGAATTGTGGGGTTCGAGTAAACAAATTTTCCTAATCTTTCTGTTCAAGCGCCATCTAC | 0.939 RPM ratio (pull-down/input) |
| GATGATTGTTCTCCCAGCTGATGAATTGCGGGGGTCGAGTAAACAAATTTTCCTAATCTTTCTGTTCAAGCGCCATCTAC | 0.857 RPM ratio (pull-down/input) |
| GATGATTGTTCTCCCAGCTGATGAATTGATCCAGTCGAGTAAACAAATTTTCCTAATCTTTCTGTTCAAGCGCCATCTAC | 0.941 RPM ratio (pull-down/input) |
| GATGATTGTTCTCCCAGCTGATGAATTGGAATTTTCGAGTAAACAAATTTTCCTAATCTTTCTGTTCAAGCGCCATCTAC | 0.898 RPM ratio (pull-down/input) |
| GATGATTGTTCTCCCAGCTGATGAATTTAATCTTTCGAGTAAACAAATTTTCCTAATCTTTCTGTTCAAGCGCCATCTAC | 0.952 RPM ratio (pull-down/input) |
| GATGATTGTTCTCCCAGCTGATGAATTTGCCCTTTCGAGTAAACAAATTTTCCTAATCTTTCTGTTCAAGCGCCATCTAC | 0.915 RPM ratio (pull-down/input) |
| GATGATTGTTCTCCCAGCTGATGAATTGGGGACTTCGAGTAAACAAATTTTCCTAATCTTTCTGTTCAAGCGCCATCTAC | 0.803 RPM ratio (pull-down/input) |
| GATGATTGTTCTCCCAGCTGATGAATTACTCACCTCGAGTAAACAAATTTTCCTAATCTTTCTGTTCAAGCGCCATCTAC | 0.973 RPM ratio (pull-down/input) |
| GATGATTGTTCTCCCAGCTGATGAATTAGCAGCGTCGAGTAAACAAATTTTCCTAATCTTTCTGTTCAAGCGCCATCTAC | 0.9 RPM ratio (pull-down/input) |
| GATGATTGTTCTCCCAGCTGATGAATTAGGGCCTTCGAGTAAACAAATTTTCCTAATCTTTCTGTTCAAGCGCCATCTAC | 0.859 RPM ratio (pull-down/input) |
| GATGATTGTTCTCCCAGCTGATGAATTACATGCATCGAGTAAACAAATTTTCCTAATCTTTCTGTTCAAGCGCCATCTAC | 1.4 RPM ratio (pull-down/input) |
| GATGATTGTTCTCCCAGCTGATGAATTGTTTAACTCGAGTAAACAAATTTTCCTAATCTTTCTGTTCAAGCGCCATCTAC | 1.29 RPM ratio (pull-down/input) |
